The values below come from PubChem BioAssay AID463173 (ICCB-Longwood Screening Facility, Harvard Medical School, 2010).

Hit rate of the full screen: of about 52,000 compounds, about 1,700 (3.3%) were called active. Cut-off read from the data, not from the text of the source: active = survival mostly below about 52% (no sharp cut-off); inactive = mostly above about 56%. This is one part of the list.

The test system of the assay is Wild type. The experiment in a line: growth inhibition of S. aureus wild type versus tarO mutant, primary screen, teichoic acid synthesis inhibitors, RN4220, OD600 (AID 463173). The note with it: S. aureus RN4220 wild type/DeltatarO growth, OD600, 18 h, active compounds read low, screened at 18.75 µg/mL (by protocol).
`Cc1ccc(CNC(=O)Cn2c(=O)n(-c3ccc(C)c(F)c3)c(=O)c3sc4ccccc4c32)cc1`: the survival was inactive: 104%.

As for `Cc1ccc(S(=O)(=O)N(CC(=O)N2CCc3ccccc3C2)c2ccc(C)c(C)c2)cc1`, the survival was inactive: 77%.

With `O=C(Nc1cc(F)ccc1F)c1ccc2c(c1)nnn2C1CCCC1`, the survival was inactive: 73%.

Consider `CCOc1ccc(-c2nc3c(C#N)c[nH]n3c2NC2CCCCC2)cc1`, for which the survival is inactive: 65%.

Regarding `CCOc1ccc2nc(NCCNC(=O)Nc3ccc(SC)cc3)c(C#N)cc2c1`, the survival was inactive: 106%.

Regarding `CCc1ccc(CNC(=O)C2CCCN(c3nn4cc(-c5ccc(F)cc5)nc4s3)C2)cc1` (stereo unspecified), the survival is inactive: 83%.

`CCOC(=O)c1ccccc1NC(=O)N1CCCN(S(=O)(=O)c2ccc3c(ccn3CC)c2)CC1`: the survival is inactive: 65%.

Turning to `Cc1cccc(-c2nc(CCNC(=O)c3ccccc3Br)cs2)c1`, the survival is inactive: 133%.

Take `CCCC(=O)Nc1cc(C(=O)NCc2ccc(OC)cc2)ccc1S(=O)(=O)c1ccc(Cl)cc1`: the survival is inactive: 69%.

On to `Cc1nn(CC(=O)NCc2ccccc2Cl)c(=O)c2cccn12`, for which the survival is inactive: 86%.

On to `CCOC(=O)C1CCN(C(=O)C2CCN(c3nnc(C)c4c(C)n(-c5ccccc5)nc34)CC2)CC1`, for which the survival was inactive: 136%.

Turning to `COc1ccc(-c2cc(OC(=O)c3ccc(F)cc3)c3c(C)oc(C)c3c(=O)c2)cc1OC`, the survival was inactive: 85%.

In the case of `COc1ccc(NC(=O)C2CCCN(S(=O)(=O)c3c(C)n[nH]c3C)C2)cc1OC` (stereo unspecified), the survival was inactive: 118%.

Take `COc1ccc(-c2noc(CSc3nnc(-c4ccccc4)n3-c3ccc(F)cc3)n2)c(OC)c1`: the survival is inactive: 103%.

As for `Cc1ccc(Cc2c(C)nn(-c3nc(C)c(C(=O)N4CCCCC4C)s3)c2C)cc1` (stereo unspecified), the survival was inactive: 76%.

`O=C(Nc1ccc(N2CCCCC2)cc1)c1cccs1`: the survival is inactive: 125%.

Regarding `CCc1nn(CC(=O)NCc2ccc(OC)cc2OC)c(=O)c2cc3c(OC)cccc3n12`, the survival is inactive: 85%.

Regarding `Cc1cccc(NC(=O)CN2c3ccccc3S(=O)(=O)c3ccccc32)c1C`, the survival was active: -3%.

On to `CCC(=O)N1CCc2cc(S(=O)(=O)NC(C(=O)NCCc3ccc(Cl)cc3)C(C)C)ccc21` (stereo unspecified), for which the survival is inactive: 79%.

Turning to `CC(C)(C)c1ccc(CSc2nnc(-c3ccco3)n2-c2ccccc2)cc1`, the survival was inactive: 109%.

Regarding `COc1ccc(NC(=O)C2CCCN(S(=O)(=O)c3ccc(Cl)cc3)C2)cc1` (stereo unspecified), the survival was inactive: 84%.

Turning to `Cc1ccc(C)c(N2CCN(c3nccn4nc(-c5ccc(Br)cc5)cc34)CC2)c1`, the survival is inactive: 168%.

Regarding `Cc1ccc(Cl)cc1NC(=O)C(NS(=O)(=O)c1cccc2nsnc12)c1ccccc1` (stereo unspecified), the survival was inactive: 72%.

With `COc1cc(C2c3c(oc4ccccc4c3=O)C(=O)N2c2nc(C)c(C)s2)ccc1O` (stereo unspecified), the survival was inactive: 69%.

Regarding `Cc1nc2nc(NC(=O)c3ccc(F)cc3)[nH]n2c(=O)c1Cc1ccccc1`, the survival is inactive: 88%.

For `O=C1C=C(NCc2ccc(Cl)cc2)CC(c2ccco2)C1` (stereo unspecified), the survival is inactive: 107%.

For `O=C(COCc1cc(-c2cccs2)on1)NCc1ccccc1Cl`, the survival is inactive: 88%.

With `Cn1c(=O)oc2cc(S(=O)(=O)CCC(=O)NCCc3ccccc3)ccc21`, the survival is inactive: 72%.

For `CCCOC(=O)c1ccc2c(c1)C(=O)N(c1ccccc1)C2=O`, the survival is inactive: 106%.

For `Cc1ccccc1NC(=O)Nc1ccc2nc(N3CCN(C)CC3)cc(C)c2c1`, the survival is inactive: 75%.

For the compound `CC(=O)c1cc(-c2ccc(F)cc2)n(CC(=O)NC(C)c2ccccc2)c1C` (stereo unspecified), the survival is inactive: 71%.

Regarding `Cc1cccn2c(=O)c(/C=C(\C#N)c3nc4ccccc4s3)c(Oc3ccc(Br)cc3)nc12`, the survival was inactive: 129%.

With `O=C(NCc1ccccc1F)C1CCN(Cc2cc3ccccc3n2Cc2cccc(Cl)c2)CC1`, the survival is inactive: 70%.

For the compound `Cc1c(C(=O)OC2CCCCC2)[nH]c2c1C(=O)CC(c1ccccc1Cl)C2` (stereo unspecified), the survival is inactive: 97%.

With `Cc1cc(C)n(-c2nnc(Nc3ccc(C(C)C)cc3)c3ccccc23)n1`, the survival was inactive: 74%.

Take `CC(=O)c1ccc(NC(=O)C2=CC(c3cccs3)=NS(=O)(=O)N2C)cc1`: the survival is inactive: 89%.

In the case of `COc1ccc(CNCc2ccc3c(c2)n(C)c(=O)n3C)cc1`, the survival was inactive: 90%.

Turning to `COc1cccc(C(=O)NC(=O)Nc2ccc(-n3nc(C(F)(F)F)cc3C(F)(F)F)cc2)c1`, the survival is inactive: 87%.

Turning to `Cc1ccc2nc(-c3ccc(NC(=O)C(F)(F)F)cc3)sc2c1`, the survival is inactive: 130%.

Take `COc1cc(Nc2nc(SCc3cccc(Cl)c3)nc3ccccc23)cc(OC)c1`: the survival was inactive: 32%.

As to `Cc1nc2c(c(C)nn2-c2ccccc2)c(C)c1CCC(=O)Nc1ccc(F)cc1`, the survival is inactive: 88%.

With `Fc1ccc(Nc2c3c(nc4nncn24)CCC3)cc1`, the survival is inactive: 82%.

With `CCN(c1ccccc1)S(=O)(=O)c1ccc(NC(=O)c2cc(=O)c3ccc(C)c(C)c3o2)cc1`, the survival is inactive: 86%.

Take `Cc1ccc2c(CC(=O)Nc3c(C(=O)c4ccc(F)cc4)oc4ccccc34)coc2c1`: the survival was inactive: 82%.

In the case of `COc1ccc(-c2nc3c(c(SCc4cc(C)ccc4C)n2)Cc2c(CO)cnc(C)c2O3)cc1`, the survival was inactive: 85%.

In the case of `COc1ccc(N2CCN(C(=O)c3nn(C)c4c3CS(=O)(=O)c3ccccc3-4)CC2)cc1`, the survival is inactive: 85%.

Consider `Cc1[nH]c(=O)[nH]c(=O)c1Oc1ccccc1`, for which the survival was inactive: 109%.

For the compound `CCC(=O)OCc1cnc(C)c2oc(=O)c(C(=O)Nc3ccc(CC)cc3)cc12`, the survival is inactive: 134%.

As for `CC(NC(=O)C1CCN(C(=O)N2CCOc3ccc(Cl)cc32)CC1)c1ccccc1` (stereo unspecified), the survival was inactive: 80%.

With `O=C(CCSCc1ccc(Cl)cc1)N1CCN(c2ccccc2F)CC1`, the survival is inactive: 90%.

On to `COc1ccc(CCNC(=O)CS(=O)Cc2nc(-c3ccc(C)cc3)oc2C)cc1OC` (stereo unspecified), for which the survival is inactive: 78%.

Turning to `NC(=O)c1cc(S(=O)(=O)NCc2ccc(Br)cc2)cs1`, the survival was inactive: 73%.

Consider `CN1C(=O)N(C)C2(CC1(C)C)CC(C)(C)N(C)C(=O)N2C`, for which the survival is inactive: 102%.

Regarding `CCCN1C(=O)c2ccccc2NC1c1cc(OC)c(OC)c(OC)c1` (stereo unspecified), the survival is inactive: 101%.

For `COc1ccccc1Nc1nn2c(=O)c3ccc(C(=O)Nc4ccc(F)cc4)cc3nc2s1`, the survival is inactive: 88%.

Consider `CC(=O)N1c2ccccc2NC(=O)C1CC(=O)Nc1cccc(C)c1` (stereo unspecified), for which the survival is inactive: 114%.
